{"source": "the supplement of paper PMC10600219", "note": "Structures can show the parent of a compound that is named as a salt. The full ranking holds about 2,800 compounds; the median of “cell viability relative to vehicle” is about 0.98, and the lowest 2% start at about 0.45. This is one part of the list."}
{"system": "NCI-H2228 alectinib-DTP", "assay": "cell viability relative to vehicle (fraction of vehicle); NCI-H2228 is an ALK-positive lung cancer line and DTP means drug-tolerant persister; higher = less growth inhibition", "details": "100 nM; treatment time 6 days", "method_in_brief": "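NCI-H2228 parental cells and drug-tolerant persister cells were plated in 384-well plates; the persisters had been generated with 1000 nM of a targeted drug over 13 days. One day later, the 3114-agent TargetMol anti-cancer compound library was added at 100 nM, with DMSO serving as vehicle. ATP was measured 6 days after that using the CellTiter-Glo 3D Cell Viability Assay. Values are cell viability expressed relative to vehicle-treated cells.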"}
{"compound": "CC(C)/N=c1\\cc2n(-c3ccc(Cl)cc3)c3ccccc3nc-2cc1Nc1ccc(Cl)cc1", "note": "[Clofazimine]", "cell viability": 1.14}
{"compound": "COc1cc(O)cc(CCc2ccc(O)c(OC)c2)c1", "note": "[Gigantol]", "cell viability": 0.85}
{"compound": "CN(CCOc1ccc(CC2SC(=O)NC2=O)cc1)c1ccccn1", "note": "(centres undefined) [Rosiglitazone maleate]", "cell viability": 0.953}
{"compound": "CN(CCOc1ccc(CC2SC(=O)NC2=O)cc1)c1ccccn1", "note": "(centres undefined) [Rosiglitazone]", "cell viability": 0.948}
{"compound": "CN(C)CC[C@@H](c1ccc(Cl)cc1)c1ccccn1", "note": "[Dexchlorpheniramine Maleate]", "cell viability": 0.918}
{"compound": "O=C(NCC(=O)N1CCCC1)Nc1ccc2cnccc2c1", "cell viability": 1.07}
{"compound": "COc1cc(OC)cc(C(=O)Nc2ccc(Cl)c(-c3nc4ccc(N(C)C)cc4[nH]3)c2)c1", "note": "[HhAntag]", "cell viability": 0.952}
{"compound": "C[C@@H]1CC[C@@]2(OC1)O[C@H]1C[C@H]3[C@@H]4CC=C5C[C@@H](O)C[C@@H](O)[C@]5(C)[C@H]4CC[C@]3(C)[C@H]1[C@@H]2C", "note": "[Ruscogenin]", "cell viability": 1.06}
{"compound": "COC(=O)C(N)CS", "note": "[L-Cysteine methyl ester hydrochloride(Acdrile)]", "cell viability": 1.02}
{"compound": "Cc1ccc(NS(=O)(=O)c2cccc(C#N)c2)c2[nH]cc(C#N)c12", "cell viability": 0.669}
{"compound": "CS(=O)(=O)Nc1ccc([N+](=O)[O-])cc1OC1CCCCC1", "cell viability": 1.12}
{"compound": "Nc1cc(-c2ccncc2)c[nH]c1=O", "note": "[Amrinone]", "cell viability": 1.02}
{"compound": "CN(C)CCOC(=O)COc1ccc(Cl)cc1", "note": "[Meclofenoxate hydrochloride]", "cell viability": 0.936}
{"compound": "Brc1c(NC2=NCCN2)ccc2nccnc12", "note": "[Brimonidine Tartrate]", "cell viability": 0.846}
{"compound": "N=C(N)N/N=C/c1c(Cl)cccc1Cl", "note": "[Guanabenz Acetate]", "cell viability": 0.881}
{"compound": "C[C@H]1O[C@@H](O[C@H]2CC[C@@]3(C)[C@@H](CC[C@]4(C)[C@@H]3C=C[C@]35OC[C@@]6(CCC(C)(C)C[C@H]63)[C@H](O)C[C@]54C)[C@]2(C)CO)[C@H](O)[C@@H](O[C@@H]2O[C@H](CO)[C@@H](O)[C@H](O)[C@H]2O)[C@H]1O", "note": "[Saikosaponin D]", "cell viability": 0.916}
{"compound": "N[C@@H](C(=O)N[C@@H]1C(=O)N2C(C(=O)O)=C(Cl)CS[C@H]12)c1ccccc1", "note": "[Cefaclor monohydrate]", "cell viability": 1.21}
{"compound": "COc1ccc(C(=O)NCc2ccc(OCCN(C)C)cc2)cc1OC", "note": "[Itopride hydrochloride]", "cell viability": 0.975}
{"compound": "COC[C@H](NC(=O)c1cnc(C)s1)C(=O)N[C@@H](COC)C(=O)N[C@@H](Cc1ccccc1)C(=O)[C@@]1(C)CO1", "note": "[Oprozomib]", "cell viability": 0.371}
{"compound": "CCCCC(=O)N(Cc1ccc(-c2ccccc2-c2nnn[nH]2)cc1)[C@H](C(=O)O)C(C)C.CCOC(=O)[C@H](C)C[C@@H](Cc1ccc(-c2ccccc2)cc1)NC(=O)CCC(=O)O", "cell viability": 1.03}
{"compound": "C=CC(=O)Nc1cc(Nc2nccc(-n3cc(CN(C)C)c(-c4ccccc4)n3)n2)c(OC)cc1N1CCOCC1", "note": "[Lazertinib]", "cell viability": 0.832}
{"compound": "Cc1cc(Nc2nc(N[C@@H](C)c3ncc(F)cn3)ncc2Cl)[nH]n1", "cell viability": 0.841}
{"compound": "C[C@@H]1O[C@@H](Oc2cc(O)c3c(=O)c(O[C@@H]4O[C@@H](C)[C@H](O)[C@@H](O)[C@H]4O)c(-c4ccc(O)cc4)oc3c2)[C@H](O)[C@H](O)[C@H]1O", "note": "[Kaempferitrin]", "cell viability": 1.04}
{"compound": "S=C(N/N=C1/CCCc2cccnc21)N1CCN(c2ccccn2)CC1", "cell viability": 1.09}
{"compound": "COc1ccc(-c2cc(C(F)F)nn2-c2ccc(S(N)(=O)=O)cc2)cc1F", "note": "[Deracoxib]", "cell viability": 1.07}
{"compound": "O=C(O)CC1CC(c2ccccc2)=NO1", "note": "(centres undefined)", "cell viability": 0.932}
{"compound": "CCN(c1cc(-c2ccc(CN3CCOCC3)cc2)cc(C(=O)NCc2c(C)cc(C)[nH]c2=O)c1C)C1CCOCC1", "cell viability": 1.08}
{"compound": "NC(N)=O", "cell viability": 1.1}
{"compound": "CC1=C(CC(=O)O)c2cc(F)ccc2/C1=C\\c1ccc([S+](C)[O-])cc1", "note": "(centres undefined) [Sulindac]", "cell viability": 1.07}
{"compound": "C=CC(=O)Nc1ccc2ncnc(Nc3ccc(OCc4cccc(F)c4)c(Cl)c3)c2c1", "cell viability": 0.866}
{"compound": "C=CC(=O)N1CCC[C@@H](n2nc(-c3ccc(Oc4ccccc4)cc3)c3c(N)ncnc32)C1", "note": "[Ibrutinib]", "cell viability": 0.741}
{"compound": "O=C1N=C(N2CCOCC2)CN1c1ccc(Cl)cc1", "cell viability": 0.919}
{"compound": "O=C(O)c1ccccc1C(=O)Nc1ccc(-c2ccccc2)cc1", "note": "[Kartogenin]", "cell viability": 0.96}
{"compound": "C[C@@H]1CN(CC(=O)Nc2ccc3c(c2)Cc2cccc(-c4cc(=O)cc(N5CCOCC5)o4)c2S3)C[C@H](C)O1", "cell viability": 0.961}
{"compound": "O=C(/C=C/c1ccc(O)cc1)C1=C(O)C(O)([C@@H]2O[C@H](CO)[C@@H](O)[C@H](O)[C@H]2O)C(O)=C([C@@H]2O[C@H](CO)[C@@H](O)[C@H](O)[C@H]2O)C1=O", "note": "(some centres undefined) [Hydroxysafflor yellow A]", "cell viability": 1.08}
{"compound": "O=C1CC(c2c[nH]c3ccc(F)cc23)C(=O)N1", "note": "(centres undefined)", "cell viability": 1.14}
{"compound": "CCc1cccc2c3c([nH]c12)C(CC)(CC(=O)O)OCC3", "note": "(centres undefined) [Etodolac]", "cell viability": 0.91}
{"compound": "Cc1noc(NS(=O)(=O)c2ccc(N)cc2)c1C", "note": "[Sulfisoxazole]", "cell viability": 1.07}
{"compound": "Cc1nc(N)sc1-c1ccnc(Nc2ccc(N3CCOCC3)cc2)n1", "cell viability": 0.942}
{"compound": "C[C@]12CC[C@@H]3c4ccc(O)cc4CC[C@H]3[C@@H]1C[C@@H](O)[C@@H]2O", "note": "[Estriol]", "cell viability": 0.855}
{"compound": "CNC(=O)[C@H](Cc1ccccc1)NC(=O)[C@H](CC(C)C)[C@H](CSc1cccs1)C(=O)NO", "note": "[Batimastat]", "cell viability": 1.15}
{"compound": "CCOC(=O)[C@H](CCc1ccccc1)N[C@@H](C)C(=O)N1CCC[C@H]1C(=O)O", "note": "[Enalapril Maleate]", "cell viability": 0.751}
{"compound": "c1cc(Nc2cc(C3CC3)[nH]n2)nc(Nc2ccc3nc[nH]c3c2)n1", "cell viability": 0.696}
{"compound": "COc1cc2ncnc(Nc3ccc(O)cc3)c2cc1OC", "cell viability": 0.992}
{"compound": "CC(C)=CCC/C(C)=C/CC/C(C)=C/CC/C(C)=C/CC1=C(C)C(=O)c2ccccc2C1=O", "note": "[Menatetrenone]", "cell viability": 0.832}
{"compound": "O=C1/C(=C2\\Nc3ccccc3C2=O)Nc2ccccc21", "note": "[Indigo]", "cell viability": 1.05}
{"compound": "COc1ccc(-c2ccccc2)cc1NS(=O)(=O)c1cc(Cl)cc(Cl)c1O", "cell viability": 0.883}
{"compound": "COc1ccc2[nH]c([S+]([O-])Cc3ncc(C)c(OC)c3C)nc2c1", "note": "(centres undefined) [Omeprazole]", "cell viability": 0.981}
{"compound": "O=C(Nc1ccc(-c2ccnc(Nc3ccc(N4CCOCC4)cc3)n2)cc1)C1CCCN1", "note": "(centres undefined)", "cell viability": 0.934}
{"compound": "CCS(=O)(=O)Nc1ccc2c(c1)/C(=C(/Nc1ccc(CN3CCCCC3)cc1)c1ccccc1)C(=O)N2", "note": "[Hesperadin]", "cell viability": 0.823}
{"compound": "O=S(=O)(O)CCCS(=O)(=O)O", "note": "[Eprodisate disodium]", "cell viability": 1.06}
{"compound": "CC(Nc1nc(N2CCCC2)nc2ccccc12)c1ccccc1", "note": "(centres undefined) [Importazole]", "cell viability": 1.12}
{"compound": "COc1ccc(-c2cc(=O)c3c(O)cc(O[C@@H]4O[C@H](CO[C@@H]5O[C@@H](C)[C@H](O)[C@@H](O)[C@H]5O)[C@@H](O)[C@H](O)[C@H]4O)cc3o2)cc1", "note": "[Linarin]", "cell viability": 0.937}
{"compound": "CCCCCCCCOC(=O)c1cc(O)c(O)c(O)c1", "note": "[Octyl gallate]", "cell viability": 1.05}
{"compound": "CC(=O)Nc1ccc(O)cc1", "note": "[Acetaminophen]", "cell viability": 1.09}
{"compound": "Nc1cccc2c1CN(C1CCC(=O)NC1=O)C2=O", "note": "(centres undefined) [Lenalidomide]", "cell viability": 0.897}
{"compound": "NC(=S)N/N=C/c1ncccc1N", "note": "[Triapine]", "cell viability": 1.03}
{"compound": "C=CC1=C(C(=O)O)N2C(=O)[C@@H](NC(=O)/C(=N\\OCC(=O)O)c3csc(N)n3)[C@H]2SC1", "note": "[Cefixime]", "cell viability": 0.855}
{"compound": "OCCOCCN1CCN(C(c2ccccc2)c2ccc(Cl)cc2)CC1", "note": "(centres undefined) [Hydroxyzine Pamoate]", "cell viability": 1.06}
{"compound": "OCCOCCN1CCN(C(c2ccccc2)c2ccc(Cl)cc2)CC1", "note": "(centres undefined) [Hydroxyzine dihydrochloride]", "cell viability": 0.846}
{"compound": "O=C(O)c1ccc2c3c1cccc3c(=O)n1c3ccccc3nc21", "note": "[STO-609 acetate]", "cell viability": 1.03}
{"compound": "COc1ccc(CNC(=O)Nc2ncc([N+](=O)[O-])s2)cc1", "cell viability": 0.764}
{"compound": "O=C(NS(=O)(=O)c1ccc(Br)s1)c1ccc(Cl)cc1Cl", "note": "[Tasisulam]", "cell viability": 0.922}
{"compound": "C/C(=N\\NC(=O)c1cccc(S(=O)(=O)N2CCOCC2)c1)c1cc(Cl)ccc1O", "cell viability": 0.84}
{"compound": "O=C(Nc1ccc(C(O)(C(F)(F)F)C(F)(F)F)cc1)c1ccccc1Cl", "cell viability": 0.929}
{"compound": "COc1c(OCCCN2CCOCC2)ccc2c1N=C(NC(=O)c1cnc(N)nc1)N1CCN=C21", "note": "[Copanlisib]", "cell viability": 0.38}
{"compound": "O=NN(CCCl)C(=O)NC1CCCCC1", "note": "[Lomustine]", "cell viability": 0.778}
{"compound": "OC1CCC(Oc2cccc3cnc(Nc4ccc5nc[nH]c5c4)nc23)CC1", "note": "(centres undefined)", "cell viability": 1.02}
{"compound": "NC(Cc1ccccc1O)C(=O)O", "note": "(racemic) [DL-O-Tyrosine]", "cell viability": 0.88}
{"compound": "Cc1cccc(CN2CCN(C(c3ccccc3)c3ccc(Cl)cc3)CC2)c1", "note": "(centres undefined) [Meclizine dihydrochloride]", "cell viability": 0.951}
{"compound": "COc1cnc(NS(=O)(=O)c2ccc(N)cc2)nc1", "note": "[Sulfameter]", "cell viability": 1.08}
{"compound": "O=C(O)CCn1c2c(c3ccccc31)C[C@H](NS(=O)(=O)c1ccc(F)cc1)CC2", "note": "[Ramatroban]", "cell viability": 0.887}
{"compound": "O=C(O)CCC(=O)Nc1ccc(S(=O)(=O)Nc2nccs2)cc1", "note": "[Succinylsulfathiazole]", "cell viability": 1.19}
{"compound": "Cc1c[nH]c2nc(Nc3ccc(N4CCN(C)CC4)c(F)c3)nc(-c3cccc(CC#N)c3)c12", "cell viability": 0.981}
{"compound": "CN1CCC(COc2cnc(-c3cccc(Cn4nc(-c5cccc(C#N)c5)ccc4=O)c3)nc2)CC1", "note": "[Tepotinib]", "cell viability": 1.05}
{"compound": "CC(C)c1cc(C(=O)N2Cc3ccc(CN4CCN(C)CC4)cc3C2)c(O)cc1O", "note": "[Onalespib]", "cell viability": 0.793}
{"compound": "CCOC(=O)C1=C[C@]2(CC)CCCN3CCc4c(n1c1ccccc41)[C@@H]32", "note": "[Vinpocetine]", "cell viability": 1.16}
{"compound": "Cc1cc(-n2cccc2)c(S(C)(=O)=O)cc1C(=O)N=C(N)N", "note": "[Eniporide]", "cell viability": 1.04}
{"compound": "CC(C)[C@H](NC(=O)[C@H](CC(=O)O)NC(=O)[C@H](CCCCN)NC(=O)[C@@H](N)CCCN=C(N)N)C(=O)N[C@@H](Cc1ccc(O)cc1)C(=O)O", "note": "[Thymopentin]", "cell viability": 1.05}
